Source: the supplement of paper PMC4604168 (melanoma cell lines)
The list shows a part of the results. Single values are uncertain, as repeats are few or missing.

These compounds were tested on SkMel28 (assay: cell count relative to DMSO control; melanoma cells; higher = more viable cells). Conditions: library dose: standard library concentration; 72 h.
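Note: cells treated in 1,536-well plates, then fixed and DAPI-stained, with nuclei counted from automated high-throughput microscope images.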

SMILES | cell count
CCCCCCCCc1ccc(CCC(N)(CO)CO)cc1 [fingolimod] + O=C(O)c1ccc(-c2c[nH]c3ncc(-c4ccccc4)cc23)cc1C1CCCC1 [GSK650394] (first compound 10 µM, partner dose 0.8 µM) | 0.696%
CCCCCCCCc1ccc(CCC(N)(CO)CO)cc1 [fingolimod] + CCN(CC)CCCCNc1ncc2cc(-c3cc(OC)cc(OC)c3)c(NC(=O)NC(C)(C)C)nc2n1 [PD173074] (first compound 10 µM, partner dose 0.5 µM) | 34.6%
NC(=O)c1ccc(N(C(N)=O)c2c(F)cccc2F)nc1-c1ccc(F)cc1F + CCCCCCCCCCCC1=C(O)C(=O)C=C(O)C1=O [Embelin] (first compound 2 µM, partner dose 6 µM) | 94.8%
CCCCCCCCc1ccc(CCC(N)(CO)CO)cc1 [fingolimod] + O=C(Nc1ccccc1)c1cc([N+](=O)[O-])ccc1Cl [GW9662] (first compound 10 µM, partner dose 10 µM) | 1.68%
NC(=O)c1ccc(N(C(N)=O)c2c(F)cccc2F)nc1-c1ccc(F)cc1F + Cn1cc(/C=C2\C(=O)Nc3cccnc32)c2ccccc21 [GW441756] (first compound 2 µM, partner dose 2 µM) | 85.1%

What follows are compounds tested on SkMel2 in the same assay as above. Conditions: library dose: standard library concentration; 72 h.

SMILES | cell count
NC(=O)c1ccc(N(C(N)=O)c2c(F)cccc2F)nc1-c1ccc(F)cc1F + O=C1NC(=O)/C(=C/c2ccc(-c3ccc(F)cc3O)o2)S1 [AS252424] (first compound 2 µM, partner dose 5 µM) | 94.5%
NC(=O)c1ccc(N(C(N)=O)c2c(F)cccc2F)nc1-c1ccc(F)cc1F + COc1ccc(COc2ccc(Cc3cnc(N)nc3N)cc2OC)cc1 [GW2580] (first compound 2 µM, partner dose 5 µM) | 103%
NC(=O)c1ccc(N(C(N)=O)c2c(F)cccc2F)nc1-c1ccc(F)cc1F + O=C(O)C(=O)Nc1sc2c(c1C(=O)O)CCNC2 [TCS401] (first compound 2 µM, partner dose 8.33333 µM) | 85.1%
CC(C)(C)c1cnc(CSc2cnc(NC(=O)C3CCNCC3)s2)o1 + CC(C)CCN1c2nc(Nc3cc(F)c(O)c(F)c3)ncc2N(C)C(=O)C1C [BID1870] (first compound 0.05 µM, partner dose 1 µM) | 66.1%
COc1cc2c(Oc3ccc4[nH]c(C)cc4c3F)ncnc2cc1OCCCN1CCCC1 [cediranib] + COc1ccc(-c2ccc3c(N4CCOCC4)nc(N4C[C@@H](C)O[C@@H](C)C4)nc3n2)cc1CO [KU0063794] (first compound 2 µM, partner dose 0.1 µM) | 78.8%
CCc1ccc(CCOc2ccc(CC3SC(=O)NC3=O)cc2)nc1 (stereo not given) [pioglitazone] + Cn1cc(/C=C2\C(=O)Nc3cccnc32)c2ccccc21 [GW441756] (first compound 10 µM, partner dose 2 µM) | 91.5%
NC(=O)c1ccc(N(C(N)=O)c2c(F)cccc2F)nc1-c1ccc(F)cc1F + O=c1cc(-c2cccc3c2Sc2ccccc2S3)oc(N2CCOCC2)c1 [KU55933] (first compound 2 µM, partner dose 5 µM) | 84.6%
CN(NC(=O)CC(=O)NN(C)C(=S)c1ccccc1)C(=S)c1ccccc1 + CCc1ccc(CCOc2ccc(CC3SC(=O)NC3=O)cc2)nc1 [pioglitazone] (first compound 0.03 µM, partner dose 10 µM) | 82.9%
NC(=O)c1ccc(N(C(N)=O)c2c(F)cccc2F)nc1-c1ccc(F)cc1F + c1cc(-c2cnn3cc(-c4ccc(OCCN5CCCCC5)cc4)cnc23)ccn1 [Dorsomorphin] (first compound 2 µM, partner dose 2 µM) | 99.1%
Cc1ccc(NC(=O)c2cccc(N(C)C)c2)cc1NC(=O)c1ccc(O)cc1 + COc1ccc(-c2ccc3c(N4CCOCC4)nc(N4C[C@@H](C)O[C@@H](C)C4)nc3n2)cc1CO [KU0063794] (first compound 10 µM, partner dose 0.1 µM) | 88.7%
NC(=O)c1ccc(N(C(N)=O)c2c(F)cccc2F)nc1-c1ccc(F)cc1F + CCN(CC)CCCCNc1ncc2cc(-c3cc(OC)cc(OC)c3)c(NC(=O)NC(C)(C)C)nc2n1 [PD173074] (first compound 2 µM, partner dose 0.5 µM) | 143%
CCCCCCCCc1ccc(CCC(N)(CO)CO)cc1 [fingolimod] + Oc1nc(-c2ccc(C(F)(F)F)cc2)nc2c1CSCC2 [XAV939] (first compound 10 µM, partner dose 10 µM) | 78.5%
NC(=O)c1ccc(N(C(N)=O)c2c(F)cccc2F)nc1-c1ccc(F)cc1F + COc1cc2ncnc(Nc3ccc(Oc4ccccc4)cc3)c2cc1OC [SrcI1] (first compound 2 µM, partner dose 10 µM) | 79.3%
CCCCCCCCc1ccc(CCC(N)(CO)CO)cc1 [fingolimod] + Oc1cc(-c2nc(-c3ccccc3)[nH]c2-c2ccncc2)ccc1Cl [L779450] (first compound 10 µM, partner dose 1 µM) | 0.188%
NC(=O)c1ccc(N(C(N)=O)c2c(F)cccc2F)nc1-c1ccc(F)cc1F + Oc1cc(-c2nc(-c3ccccc3)[nH]c2-c2ccncc2)ccc1Cl [L779450] (first compound 2 µM, partner dose 1 µM) | 36.4%
COc1cc2c(Oc3ccc4[nH]c(C)cc4c3F)ncnc2cc1OCCCN1CCCC1 [cediranib] + COC(=O)c1sccc1S(=O)(=O)Nc1ccc(Nc2ccccc2)cc1OC [GSK0660] (first compound 2 µM, partner dose 5 µM) | 94.9%
NC(=O)c1ccc(N(C(N)=O)c2c(F)cccc2F)nc1-c1ccc(F)cc1F + Cc1cc([N+](=O)[O-])ccc1NS(=O)(=O)c1cc(Cl)ccc1Cl [FH535] (first compound 2 µM, partner dose 5 µM) | 87.3%
Cc1ccc(NC(=O)c2cccc(N(C)C)c2)cc1NC(=O)c1ccc(O)cc1 + N#Cc1c(O)c2c(-c3ccc(-c4ccccc4O)cc3)csc2[nH]c1=O [A769662] (first compound 10 µM, partner dose 10 µM) | 89.1%
NC(=O)c1ccc(N(C(N)=O)c2c(F)cccc2F)nc1-c1ccc(F)cc1F + COc1cc(N2CCC(N3CCN(C)CC3)CC2)ccc1Nc1ncc(Cl)c(Nc2ccccc2S(=O)(=O)C(C)C)n1 [NVP-TAE684] (first compound 2 µM, partner dose 0.4 µM) | 71.9%
CCc1ccc(CCOc2ccc(CC3SC(=O)NC3=O)cc2)nc1 (stereo not given) [pioglitazone] + COc1ccc2c(c1)CCC1C2CCC2(C)C(NCCCCCCN3C(=O)C=CC3=O)CCC12 [U73122] (first compound 10 µM, partner dose 2 µM) | 79.3%
NC(=O)c1ccc(N(C(N)=O)c2c(F)cccc2F)nc1-c1ccc(F)cc1F + COc1ccc2c(c1)CCC1C2CCC2(C)C(NCCCCCCN3C(=O)C=CC3=O)CCC12 [U73122] (first compound 2 µM, partner dose 2 µM) | 87.1%
NC(=O)c1ccc(N(C(N)=O)c2c(F)cccc2F)nc1-c1ccc(F)cc1F + O=S(=O)(c1ccccc1)N(CC(F)(F)F)c1ccc(C(O)(C(F)(F)F)C(F)(F)F)cc1 [T0901317] (first compound 2 µM, partner dose 7 µM) | 97%
CCCCCCCCc1ccc(CCC(N)(CO)CO)cc1 [fingolimod] + Cc1cc([N+](=O)[O-])ccc1NS(=O)(=O)c1cc(Cl)ccc1Cl [FH535] (first compound 10 µM, partner dose 5 µM) | 24.1%
CCCCCCCCc1ccc(CCC(N)(CO)CO)cc1 [fingolimod] + COc1ccc2c(c1)CCC1C2CCC2(C)C(NCCCCCCN3C(=O)C=CC3=O)CCC12 [U73122] (first compound 10 µM, partner dose 2 µM) | 49.3%
NC(=O)c1ccc(N(C(N)=O)c2c(F)cccc2F)nc1-c1ccc(F)cc1F + COC(=O)c1sccc1S(=O)(=O)Nc1ccc(Nc2ccccc2)cc1OC [GSK0660] (first compound 2 µM, partner dose 5 µM) | 89.9%
CCCCCCCCc1ccc(CCC(N)(CO)CO)cc1 [fingolimod] + Cc1cc(Nc2cc(N3CCN(C)CC3)nc(/C=C/c3ccccc3)n2)n[nH]1 [ENMD2076] (first compound 10 µM, partner dose 0.2 µM) | 0.115%
NC(=O)c1ccc(N(C(N)=O)c2c(F)cccc2F)nc1-c1ccc(F)cc1F + COc1ccc(-c2ccc3c(N4CCOCC4)nc(N4C[C@@H](C)O[C@@H](C)C4)nc3n2)cc1CO [KU0063794] (first compound 2 µM, partner dose 0.1 µM) | 95.2%
CCCCCCCCc1ccc(CCC(N)(CO)CO)cc1 [fingolimod] + O=S(=O)(c1ccccc1)N(CC(F)(F)F)c1ccc(C(O)(C(F)(F)F)C(F)(F)F)cc1 [T0901317] (first compound 10 µM, partner dose 7 µM) | 0.0936%
CCCCCCCCc1ccc(CCC(N)(CO)CO)cc1 [fingolimod] + c1cc(-c2cnn3cc(-c4ccc(OCCN5CCCCC5)cc4)cnc23)ccn1 [Dorsomorphin] (first compound 10 µM, partner dose 2 µM) | 0.394%
CC(C)(C)c1cnc(CSc2cnc(NC(=O)C3CCNCC3)s2)o1 + NCC(=O)Nc1ccc(-n2nc(C(F)(F)F)cc2-c2ccc3c(ccc4ccccc43)c2)cc1 [OSU03012] (first compound 0.05 µM, partner dose 5 µM) | 44.2%
